Results taken from PubChem BioAssay AID1794797 (DTP/NCI, 2022).
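A percent growth of 40 corresponds to 60% growth inhibition; 0 means no net growth; -100 means all cells died. Active threshold: below 10.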 The source holds more than one record for some entries. This is not the full list of results. An entry can have further records. The screen tested this drug many times, at the concentration stated with the values; each value is one run. Counts like (3×) stand for listed records that agree.

Tested on: KM20L2 colon
Assay: NCI-60 one-dose screen, 48 h (100 = growth as untreated, 0 = no growth, -100 = all killed)
Details: 2.5 mM
Experimental: Growth inhibition of the KM20L2 human tumor cell line is measured as a screen for anti-cancer activity. Cells are grown in 96 well plates and exposed to the test compound for 48 hours. Compounds are tested at a single concentration, which is 10^-5 M for most compounds. The reported endpoint is percent growth (GI% or GIPRCNT), where numbers from 0 - 100% represent growth inhibition, and numbers from -100% - 0 represent cell death. For example, a value of 40 represents 60% growth inhibition. A value of 0 means no net growth occurred over the course of the experiment. A value of -40 indicates 40% of cells at the beginning of the experiment died by the end of the experiment. A value of -100 means all cells are dead at the end of the experiment.
NCI-60 Human Tumor Cell Lines Screen was performed using the standard one-dose NCI protocol, which is described in more detail at https://dtp.cancer.gov/discovery_development/nci-60/default.htm.
Compounds with GIPRCNT values below 10 were considered active. Activity score was based on GIPRCNT using the following formula: […]
Score is 0 for GIPRCNT values of 100 or above, 50 for GIPRCNT values of 0, and 100 for GIPRCNT values of -100.

Compound: O=c1[nH]cc(F)c(=O)[nH]1
- growth (runs of 1991): 14.3, 13.1, 20, 24.9, 10.1, 12.5, 21, 22.9, 21.9, 18.3, 14.9, 18.9 (2×), 25.8, 32.5, 2.61, 17.1%
- growth (runs of 1992): 11.2, 9.83, 14.5 (3×), 15.1 (2×), 9.85 (2×), 17, 7.12, 23.8, 22.3, 33, 11.5, 22.5, 23 (2×), 16.9, 28.8, 29.7, 18.4 (2×), 10.2, 24, 12.4, 5.4, 20.8, 21.2, 15.7, 5.27, 18.1, 19.7, 19.5, 18.3 (4×), 11.1, 4.57, 24.5, 25.3, 2.01, -17.2, 17.9, 9.94, 17.3, 17.5, 19.1 (2×), 11.8, 3.23, -25.2, 28.7, 4.24, 13.8, 18.9 (2×), 17.6, 25.5, 16, 9.22, 12.1, 5.96, 18, 32.5, 21.1, 27.6, 18.5, 7.45, 122, 13, 10.8, 21.8, 23.5, 9.62, 14.7, -19.8, 6.62, 7.56, 24.4, 12.3, -0.277%
